According to the BET-seq Pho4 binding data (Le et al. 2018):
The list shows a part of the results. The energies were worked out here from pooled read counts, against the library average; single values are noisy.

target: T1, Pho4 (S. cerevisiae) (UniProt P07270); assay: relative binding free energy (BET-seq); higher = weaker binding; conditions: reference: library average
T1 sequence: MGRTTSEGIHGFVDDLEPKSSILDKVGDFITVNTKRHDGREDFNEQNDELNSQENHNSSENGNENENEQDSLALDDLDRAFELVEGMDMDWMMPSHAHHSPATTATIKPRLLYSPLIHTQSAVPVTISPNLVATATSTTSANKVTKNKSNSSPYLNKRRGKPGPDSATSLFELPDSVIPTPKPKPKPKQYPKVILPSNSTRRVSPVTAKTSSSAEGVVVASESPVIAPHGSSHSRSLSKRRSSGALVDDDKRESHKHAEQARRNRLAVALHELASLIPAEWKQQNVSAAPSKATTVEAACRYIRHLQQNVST

Sequence | relative binding free energy
GTGCGCACGTGGTGAC | -0.07 kcal/mol
GGTCGCACGTGGGAAG | -0.14 kcal/mol
TGTTTCACGTGGGGCC | 0.25 kcal/mol
TTATTCACGTGCTATT | -0.03 kcal/mol
TTTCTCACGTGATCGG | 0.3 kcal/mol
TTTGTCACGTGACTAT | 0.38 kcal/mol
GTAAACACGTGAGTGG | 0.14 kcal/mol
GGATGCACGTGCTGAG | -0.03 kcal/mol
CGGTTCACGTGCCGGG | 0.16 kcal/mol
TGTAGCACGTGTGTCA | -0.08 kcal/mol
CTGGACACGTGTAGTT | 0.02 kcal/mol
TTATACACGTGGATAG | 0.06 kcal/mol
CGAGGCACGTGCGGTG | -0.2 kcal/mol
AGGCGCACGTGAGATG | 0.16 kcal/mol
TTAAACACGTGTTGGC | -0.03 kcal/mol
AATGTCACGTGGAGCG | 0.18 kcal/mol
GTGTTCACGTGCGCGT | 0.22 kcal/mol
TGTATCACGTGATGAG | 0.24 kcal/mol
AAGATCACGTGTTAGG | 0.15 kcal/mol
GGTGTCACGTGCAGGC | 0.16 kcal/mol
GTATTCACGTGTTATT | 0.18 kcal/mol
GAACGCACGTGGAGGG | -0.13 kcal/mol
TGGATCACGTGATCGG | 0.34 kcal/mol
TTGTGCACGTGTGTTT | 0.07 kcal/mol
AGTTACACGTGCTTTT | 0.23 kcal/mol

Sequence | relative binding free energy
CGCTGCACGTGGGGGT | -0.15 kcal/mol
GGGCGCACGTGGTAGA | -0.04 kcal/mol
GTTCGCACGTGGGCAT | -0.08 kcal/mol
CTGGTCACGTGCGAGT | 0.15 kcal/mol
TAAACCACGTGGGTTT | -0.06 kcal/mol
TGATTCACGTGTTCGG | 0.27 kcal/mol
ATTATCACGTGTCTTG | 0.1 kcal/mol
GGGGGCACGTGTACTA | -0.13 kcal/mol
TCTTGCACGTGTTAAT | 0.03 kcal/mol
TATGGCACGTGACTAG | -0.04 kcal/mol
AACGGCACGTGTGGGT | -0.01 kcal/mol
TGTCTCACGTGTTGAA | 0.11 kcal/mol
GAAGGCACGTGTGGCA | 0.05 kcal/mol
ATTGTCACGTGGGGTT | 0.01 kcal/mol
AGGGTCACGTGTTAGG | 0.02 kcal/mol
TGAAGCACGTGTGAGA | 0.1 kcal/mol
GGCGGCACGTGGGACG | -0.3 kcal/mol
AAGGTCACGTGGGTTA | 0 kcal/mol
TAATGCACGTGGGAAT | -0.11 kcal/mol
CAGTTCACGTGGGGCG | 0.13 kcal/mol
CGTGGCACGTGGTGGT | -0.13 kcal/mol
GATTTCACGTGTCGGA | 0.32 kcal/mol
CTAGGCACGTGTTTGA | -0.07 kcal/mol
GCTTGCACGTGGCTGT | 0.03 kcal/mol
AGGATCACGTGGTTGT | 0.18 kcal/mol

Sequence | relative binding free energy
GTAATCACGTGTATTG | 0.1 kcal/mol
TTGGACACGTGAGTGA | 0.22 kcal/mol
ATATACACGTGGTAGA | -0.08 kcal/mol
TTCTTCACGTGATTCT | 0.45 kcal/mol
TGGGGCACGTGTGTCG | -0.1 kcal/mol
AAGGGCACGTGTCTGA | -0.13 kcal/mol
AGGGCCACGTGGTTTT | -0.02 kcal/mol
GCGTACACGTGTAGGA | 0.18 kcal/mol
GTGTTCACGTGTCGTG | 0.29 kcal/mol
AATGGCACGTGGGGAA | -0.14 kcal/mol
TCGAACACGTGTTTTT | 0.13 kcal/mol
ATAGGCACGTGGGTTA | -0.27 kcal/mol
TTATTCACGTGCATGG | 0.19 kcal/mol
ACTGGCACGTGCGGTG | -0.16 kcal/mol
TTATACACGTGGGTAT | -0.01 kcal/mol
TAACGCACGTGTTTGG | -0.11 kcal/mol
GCGTTCACGTGAGGGC | 0.46 kcal/mol
ATACGCACGTGTATGG | -0.21 kcal/mol
TTTGGCACGTGCGGCG | -0.13 kcal/mol
GTACACACGTGAGGGT | 0.15 kcal/mol
TATTGCACGTGTCCGG | 0.01 kcal/mol
TTATGCACGTGATGCT | -0.09 kcal/mol
GTAAGCACGTGTCGTT | 0.02 kcal/mol
TTGTGCACGTGGGGGG | -0.16 kcal/mol
TGGAGCACGTGCGTAT | -0.05 kcal/mol

Sequence | relative binding free energy
GTGACCACGTGATGGG | 0.24 kcal/mol
GGGAGCACGTGCTTTT | -0.08 kcal/mol
TGAGGCACGTGGTGGC | -0.07 kcal/mol
AAATACACGTGTAGTG | 0.15 kcal/mol
TCGTTCACGTGTGGGA | 0.21 kcal/mol
AGGGGCACGTGCAGGG | -0.15 kcal/mol
CTATTCACGTGGCGGG | 0.12 kcal/mol
TTGACCACGTGTTGTT | -0.16 kcal/mol
TGTTACACGTGTGGGC | 0.12 kcal/mol
TTTTACACGTGCTGCT | 0.03 kcal/mol
TTCGACACGTGAAGGT | 0.29 kcal/mol
TGGGACACGTGTATTA | 0.07 kcal/mol
ATTAGCACGTGCATTT | -0.07 kcal/mol
CTGGTCACGTGATGAT | 0.12 kcal/mol
GATGTCACGTGGGGAT | 0.03 kcal/mol
CTGTACACGTGTGTAT | 0.15 kcal/mol
TTATACACGTGCCGTG | 0.08 kcal/mol
TTTTTCACGTGCTTGC | 0.21 kcal/mol
CGTTACACGTGTGCGG | 0 kcal/mol
ATAGGCACGTGGTGCA | -0.19 kcal/mol
CTTGTCACGTGTGCTT | 0.04 kcal/mol
GCTTGCACGTGTGGAA | 0.19 kcal/mol
GAAGCCACGTGTGAGG | 0.11 kcal/mol
TGCGCCACGTGGGTGT | -0.31 kcal/mol
GTGTTCACGTGGGTCG | 0.11 kcal/mol

Sequence | relative binding free energy
ATTTGCACGTGTAAGT | 0.16 kcal/mol
ATGGACACGTGGTGTA | 0.04 kcal/mol
TTTAGCACGTGGACAT | -0.03 kcal/mol
ACGGGCACGTGGTTGC | -0.02 kcal/mol
ATATTCACGTGTAATT | 0.36 kcal/mol
GTAATCACGTGTCAGT | 0.13 kcal/mol
CTTTTCACGTGGTTCT | 0.29 kcal/mol
GGTAACACGTGTAGTA | 0.16 kcal/mol
GGGGGCACGTGATGGA | 0.08 kcal/mol
TATGGCACGTGCAGCG | -0.03 kcal/mol
TTTGTCACGTGACATT | 0.21 kcal/mol
GTTAGCACGTGGTAGA | -0.04 kcal/mol
TGTAGCACGTGCTTTA | -0.05 kcal/mol
GTTTGCACGTGTACAT | 0.12 kcal/mol
GGTATCACGTGGATAA | 0.38 kcal/mol
GATGTCACGTGTTGCG | 0.24 kcal/mol
GAATTCACGTGGTATT | 0.23 kcal/mol
TGCGTCACGTGACGGG | -0.05 kcal/mol
GGGCCCACGTGCGGGG | -0.25 kcal/mol
AGTGACACGTGAAGTT | 0.2 kcal/mol
GGGGGCACGTGGGAAT | -0.11 kcal/mol
TTGTCCACGTGTTGCT | 0 kcal/mol
CTTGTCACGTGAGTTT | 0.32 kcal/mol
CAGGTCACGTGGTTCT | 0.15 kcal/mol
TTTTTCACGTGTATCA | 0.28 kcal/mol

Sequence | relative binding free energy
TTAGACACGTGTGAAG | 0.09 kcal/mol
GTTGTCACGTGGTATA | 0.07 kcal/mol
GGTTTCACGTGCTCGG | 0.27 kcal/mol
ATTTGCACGTGGTGCA | -0.18 kcal/mol
TTCGTCACGTGGGCGT | -0.08 kcal/mol
ATTTTCACGTGGCTAT | 0.21 kcal/mol
TTGGTCACGTGTGGTT | 0.19 kcal/mol
ATTGGCACGTGGCAAT | -0.24 kcal/mol
TGTTACACGTGAGGTT | 0.26 kcal/mol
AAGGCCACGTGGTATG | 0 kcal/mol
AGTGGCACGTGTTTTA | -0.11 kcal/mol
CATGGCACGTGGTGAG | -0.19 kcal/mol
ACTGGCACGTGTAAGG | 0.24 kcal/mol
GAGAGCACGTGGTGTT | -0.2 kcal/mol
TGCGTCACGTGGATGG | 0.06 kcal/mol
AGTTGCACGTGGTAGG | -0.01 kcal/mol
GGGTACACGTGGTTAG | 0.12 kcal/mol
TTTGGCACGTGTGTCG | -0.11 kcal/mol
CACCGCACGTGGGGGG | -0.24 kcal/mol
TCTGACACGTGTTTTT | 0.09 kcal/mol
TATGTCACGTGGCGTC | 0.01 kcal/mol
